For the experiment, the system named is NCI-H322M lung. Nature of the experiment: growth of human tumour cells (NCI), 48 h.

The results in this text go back to PubChem BioAssay (NCI).

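All cell lines were grown in 96-well plates and treated with compound for 48 hours. Here, GI50 denotes the concentration required for 50% inhibition of growth. Definition used: TGI = concentration required for complete inhibition of growth.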

For the compound `CC1(C)CC[C@]23CC[C@]4(C)[C@H](CC[C@@H]5[C@@]6(C)CC[C@H](NCO)C(C)(C)[C@@H]6CC[C@]54C)[C@H]2[C@H]1OC3`, the GI50 was 10.3 µM and the TGI stood at 22 µM.
Turning to `CN1CCN(Cc2ccc(NC(=O)c3cncc(C#Cc4cnc5ccc(OCC(F)F)nn45)c3)cc2C(F)(F)F)CC1`, the GI50 is 0.733 µM and the TGI was 2.13 µM.
